The structures appear in SMILES notation. The whole screen tested about 48,000 compounds, of which about 450 (0.94%) were called active. Another 19% or so got no clear call; they are omitted. Calls follow the shape of the dose curve; as a rule, active = well fitted inhibition curve with a large enough effect; inconclusive = small, poorly fitted or top-dose-only effect; inactive = no such curve, though single readings can be large or run the other way. This is one part of the list.

This note sets out measurements from PubChem BioAssay AID1508623 (National Center for Advancing Translational Sciences (NCATS), 2021).

The nature of this assay: Primary qHTS for Identification of Small Molecule Inhibitors of Huntingtin Promoter Activity. Also: nearly all actives have a fitted effect of over 50% in size. Particulars: HEK293 HTT promoter firefly luciferase reporter (activity 0% = vehicle and -100% = no light), 24 h; series mostly up to 57.5 µM; activity change, negative = inhibition: at the top concentration. An outline of the steps: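 Firefly luciferase readout (Dual-Glo, 10 min RT) after 24 h, 37 °C compound exposure (final up to 57.5 uM) of HEK293 reporter cells cultured 24 h beforehand; PTC124 at 50 uM final as control inhibitor; activity scaled vehicle 0%, zero RLU -100%.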
On the technique in general: qHTS replaces the single test concentration by a dilution series.
On to `Cc1cc(C)cc(NC(=O)CSCc2cc(=O)c3ccc(C)c(C)c3[nH]2)c1`, for which the “activity change, negative = inhibition” value is inactive: -1.47%. Take `CNS(=O)(=O)c1cn(CC(=O)N2CCN(c3cc(C)ccc3C)CC2)cc1S(=O)(=O)NC`: the “activity change, negative = inhibition” value is inactive: 7.48%. In the case of `O=c1cc(-c2ccccc2)n2c(SCc3cccc([N+](=O)[O-])c3)nnc2[nH]1` it was inactive: -7.32%. With `CCOc1cc(C(=O)N2CCC(c3ccncc3)CC2)cc(OCC)c1OCC` the figure was inactive: -15.7%.

`NC(=O)C1CCN(C(=O)Cn2c(-c3cccs3)cc3ccccc32)CC1`: the “activity change, negative = inhibition” value is inactive: -21.7%.

As for `CCOc1ccc(NC(=O)CN2CCN(CC(=O)Nc3ccccc3OCC)CC2)cc1`, the “activity change, negative = inhibition” value is inactive: -10.5%. With `COc1ccc(CCNC(=O)CCn2c(=O)c3cccn3c3cccnc32)cc1OC` the figure was inactive: -5.96%. In the case of `CCc1ccccc1Nc1nc2ccccc2n2cnnc12` it was inactive: -29%; in that of `COc1ccccc1-n1nc(-c2ccccc2)c2cnc3cc(C(F)(F)F)ccc3c21`, inactive: -8.67%; in that of `CCOC(=O)c1ccc(NC(=O)COC(=O)c2cn(CC)c3nc(C)ccc3c2=O)cc1`, inactive: -0.856%.

Turning to `CC1CN(S(=O)(=O)c2ccc3c(c2)NC(=O)CC(=O)N3)c2ccccc2O1` (configuration not stated), the “activity change, negative = inhibition” value is inactive: 4.79%. In the case of `COc1ccc(-c2oc3ncn4nc(-c5ccccc5C)nc4c3c2-c2ccc(OC)cc2)cc1` it was inactive: -18.4% [at 11.5 µM]. Take `Cc1cccc(C)c1OC(=O)CSc1nnc(-c2cccs2)o1`: the “activity change, negative = inhibition” value is inactive: 2.99%. As for `CCOC(=O)c1ccc(C#Cc2ccc3c(c2)C(C)(C)CCS3)nc1`, the activity change, negative = inhibition result is “inactive”. With `Cc1ccc(C)c(CN2C(=O)c3ccccc3S(=O)(=O)c3ccc(C(=O)N4CCN(c5ccccc5F)CC4)cc32)c1` the figure was inactive: -8.5%; with `COc1ccc(CNC(=O)CCc2nnc3n(CC(C)C)c(=O)c4ccccc4n23)cc1`, inactive: -8.99%; with `COc1ccc(C)cc1NS(=O)(=O)c1ccc2[nH]c(=O)c(=O)[nH]c2c1`, inactive: -8.36%. `CCn1ccc2cc(S(=O)(=O)N3CCCN(C(=O)NCCOC)CC3)ccc21`: the “activity change, negative = inhibition” value is inactive: -26.9%. In the case of `CCS(=O)(=O)N1CCc2cc(C(=O)Nc3cc(C(F)(F)F)ccc3Cl)ccc21` it was inactive: -21.1%; in that of `COc1cccc(NC(=O)Cn2c(=O)n(CCCCC(=O)NCCc3ccccc3)c(=O)c3ccccc32)c1`, inactive: -12.1%; in that of `O=C(CSc1nnc2ccc3ccccc3n12)c1ccc(F)cc1`, inactive: 73.2%. With `COc1ccccc1CNC(=O)c1cnc2sc(N3CCCCCC3)nn2c1=O` the figure was inactive: -9.12%; with `O=c1c2ccccc2n(Cc2ccccc2F)c(=O)n1-c1cccc(F)c1`, inactive: -23.9%; with `Cc1ccc(C(=O)Nc2onc3c2CCCC3)cc1`, inactive: 56.3%. As to `CSc1ccc(CNC(=O)CCn2c(=O)c3cccn3c3ccc(F)cc32)cc1`, the “activity change, negative = inhibition” value was inactive: -8.05%. In the case of `Cc1ccccc1C(=O)Nc1ccc2c(c1)CCCN2C(=O)c1cccs1` it was inactive: -27.9%; in that of `COc1ccc(C(=O)N2CCC(c3nc(-c4ccc(S(=O)(=O)N5CCCC5)cc4)no3)CC2)cc1`, inactive: -18.3%; in that of `COC(=O)c1cc2occc2n1Cc1cccc(C)c1`, inactive: -21.6%. In the case of `COCCNC(=O)CCN1C(=O)c2cccnc2Oc2ccc(C)cc21` it was inactive: 3.6%.

Consider `Cc1ccc(-n2nc(C(=O)Nc3ccc(C)c(F)c3)c3c4ccccc4n(C)c3c2=O)cc1`, for which the “activity change, negative = inhibition” value is inactive: -15.8%.

With `CC(=O)Nc1nonc1-c1nnc(SCC(=O)Nc2ccc(C)c(Cl)c2)n1-c1ccccc1`, the “activity change, negative = inhibition” value is inactive: -10.8%. As for `CCOc1ccc(C(=O)c2cnc3ccc(Cl)cc3c2S(=O)(=O)c2ccc(C)cc2)cc1`, the “activity change, negative = inhibition” value is inactive: -11.9%. Turning to `CCc1ccccc1Nc1nc2cc(Cl)c(Cl)cc2nc1-n1nc(C)cc1C`, the “activity change, negative = inhibition” value is inactive: -13.8%. In the case of `Cc1ccc(-n2nc(CO)c(C(=O)NCCCc3ccccc3)n2)cc1` it was inactive: -9.16%; in that of `Cc1ccc(-n2ncc3c(Nc4ccccc4C)ncnc32)cc1`, inactive: 63.9%. Turning to `COc1cccc(Cn2c(NCc3ccc(C)cc3)nc3c2c(=O)n(C)c(=O)n3C)c1`, the activity change, negative = inhibition is inactive: 9.08% [at 11.5 µM]. In the case of `CC(=O)c1ccc(NC(=O)c2ccc(-c3nc(COc4ccc(C)cc4)c(C)o3)cc2)cc1` it was inactive: -26%. With `CC[C@]12CCCN3CCc4c(n(c5ccccc45)[C@@](O)(C(=O)OC)C1)[C@@H]32` the figure was inactive: 6.84%; with `Cc1nn(-c2ccc3nnc(C)n3n2)c(C)c1CCC(=O)Nc1ccc(OC(F)(F)F)cc1`, inactive: -6.67%. For the compound `COc1ccc(-c2cn3nc(N4CCCC(C(=O)NCc5ccccc5OC)C4)sc3n2)cc1` (configuration not stated), the “activity change, negative = inhibition” value is inactive: 31.5%. As for `COC(=O)c1cc(-c2ccc(OC)c(OC)c2)c2c(=O)[nH]c(=O)n(C)c2n1`, the “activity change, negative = inhibition” value is inactive: -2.72%. In the case of `CCC(=O)N1CCc2cc(S(=O)(=O)NC(CC(C)C)C(=O)NCc3ccc(F)cc3)ccc21` (configuration not stated) it was inactive: -12.9%; in that of `Cc1ccc(NC(=O)Cn2c(=O)n(Cc3nc(C)no3)c(=O)c3cc4c(cc32)OCO4)c(Cl)c1`, inactive: 0.851%; in that of `Cc1cccc(C)c1NC(=O)Cn1c(=O)n(Cc2ccco2)c(=O)c2ccc(C(=O)NC3CCCC3)cc21`, inactive: -13.7%. With `Cc1ccc(S(=O)(=O)c2nc(-c3ccco3)oc2SCC(=O)Nc2ccc(F)cc2)cc1` the figure was inactive: -15.1%. With `O=C(CCn1c(=O)c2sccc2n(Cc2cccc(F)c2)c1=O)NCc1ccc2c(c1)OCO2` the figure was inactive: -0.201%; with `COc1ccc(NC(=O)CCc2c(C)nc3nc(CNC(=O)OC(C)(C)C)nn3c2C)cc1OC`, inactive: -4.74%.
